Screen size: about 310,000 compounds; about 14,000 (4.5%) showed an effect of 50% or more. The effect is printed as a negative number. The list shows a part of the results.
target: human ether-à-go-go-related gene (hERG) potassium channel (human, UniProt Q12809); experiment: primary screen, population patch clamp on CHO cells stably expressing hERG
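Note: peak tail current of the secondary pulse compared with the same well before compound.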

Sequence of human ether-à-go-go-related gene (hERG) potassium channel (Q12809 whole entry, looked up): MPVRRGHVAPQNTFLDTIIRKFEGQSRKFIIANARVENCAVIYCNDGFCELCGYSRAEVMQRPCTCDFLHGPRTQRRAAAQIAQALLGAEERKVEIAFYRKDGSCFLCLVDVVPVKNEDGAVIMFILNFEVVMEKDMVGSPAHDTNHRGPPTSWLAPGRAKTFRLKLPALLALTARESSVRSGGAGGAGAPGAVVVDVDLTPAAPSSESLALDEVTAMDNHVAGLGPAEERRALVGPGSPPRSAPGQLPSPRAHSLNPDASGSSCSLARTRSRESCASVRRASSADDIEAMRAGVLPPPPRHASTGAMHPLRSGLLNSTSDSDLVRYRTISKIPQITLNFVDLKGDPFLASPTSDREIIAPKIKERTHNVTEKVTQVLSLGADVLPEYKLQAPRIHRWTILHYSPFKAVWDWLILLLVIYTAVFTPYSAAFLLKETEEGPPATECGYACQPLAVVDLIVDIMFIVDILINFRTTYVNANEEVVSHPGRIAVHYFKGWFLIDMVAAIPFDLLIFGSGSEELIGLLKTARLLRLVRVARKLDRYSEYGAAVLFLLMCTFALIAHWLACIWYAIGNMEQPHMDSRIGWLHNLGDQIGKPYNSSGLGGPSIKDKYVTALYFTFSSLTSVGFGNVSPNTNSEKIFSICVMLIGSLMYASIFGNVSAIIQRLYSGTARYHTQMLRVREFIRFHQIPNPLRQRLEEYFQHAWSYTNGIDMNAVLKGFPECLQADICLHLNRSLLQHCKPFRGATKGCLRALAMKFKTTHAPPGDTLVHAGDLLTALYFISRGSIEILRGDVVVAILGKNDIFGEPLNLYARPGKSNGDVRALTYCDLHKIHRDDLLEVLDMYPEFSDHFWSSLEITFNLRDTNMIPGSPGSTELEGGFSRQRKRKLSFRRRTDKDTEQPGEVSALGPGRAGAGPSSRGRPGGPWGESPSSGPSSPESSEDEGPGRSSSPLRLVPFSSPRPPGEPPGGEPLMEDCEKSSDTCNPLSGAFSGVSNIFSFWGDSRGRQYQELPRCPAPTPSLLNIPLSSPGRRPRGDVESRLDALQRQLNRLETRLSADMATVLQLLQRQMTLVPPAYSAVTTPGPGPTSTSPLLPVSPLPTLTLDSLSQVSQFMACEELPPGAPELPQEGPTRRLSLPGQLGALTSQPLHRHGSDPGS

Structure (SMILES)	hERG current change (%, negative = inhibition) at 10uM [%]
COc1ccc(C(C(=O)Nc2ccc(C(C)C)cc2)N(C)C(=O)c2ccc(=O)[nH]c2)cc1 (stereo not drawn)	-1.59
CC(C)CCC(C)NC(=O)Cc1ccc(S(=O)(=O)N2CCOCC2)s1 (stereo not drawn)	24.7
CCOc1ccccc1-c1nc(-c2ccc(NC(=O)c3ccc(Br)o3)cc2)no1	1.12
CC(C)n1nnnc1SCC(=O)NCCc1ccccc1	10.1
O=C(NCCn1cc(SCC(=O)N2CCOCC2)c2ccccc21)c1ccccc1	-7.79
O=C(Nc1ccc2c(c1)CCC2)c1ccccc1	9.66
O=C1C2C3C=CC(C4CC34)C2C(=O)N1/N=C/c1ccc([N+](=O)[O-])o1 (stereo not drawn)	-4.53
CCC1CCc2sc(C(=O)NCC(c3ccc(OC)cc3)N3CCOCC3)cc2C1 (stereo not drawn)	-5.82
Nc1[nH]c(=O)ncc1F	9.84
CCOCc1nnc(NC(=O)C2CC(=O)N(CCc3ccc(F)cc3)C2)s1 (stereo not drawn)	5.97
O=S(=O)(Cc1noc(-c2ccc(Cl)cc2)n1)Cc1ccco1	-4.77
Cc1cc(NS(=O)(=O)c2ccc(NC(=O)/C=C/c3ccco3)cc2)nc(C)n1	-1.13
O=C(Nc1nnc(Cc2ccccc2)s1)c1ccccc1	0.319
COc1ccccc1NS(=O)(=O)c1ccc(O)c(C(N)=O)c1	5.43
CN1CCC(C2(O)c3ccccc3CCc3ccccc32)CC1	-19.2
O=C(N=C1SC2CS(=O)(=O)CC2N1Cc1ccccc1Cl)C1CCCO1 (stereo not drawn)	21.7
CC1CCC(NC(=O)C2CCN(c3nc4ccccc4s3)CC2)CC1 (stereo not drawn)	10.2
O=C(CCCCCNc1nc(=S)[nH]c2ccccc12)NCCC1=CCCCC1	-1.66
Cc1c(C(=O)O)nnn1-c1ccccc1	10
O=C(Nc1cccnc1Cl)c1cc(-c2ccc(O)cc2)on1	23.2
Cc1ccc(OCCCC(=O)NCc2ccco2)c(C)c1	0.0372
O=C(CSc1nnc(-c2ccc(Cl)cc2)n1-c1ccccc1)N/N=C/c1ccccc1C(=O)O	12.6
CCn1c(O)c(/C=N/N=C2CCCC2)c2ccc(C3=NNC(=O)CC3)cc21	-3.53

Structure (SMILES)	hERG current change (%, negative = inhibition) at 10uM [%]
Cc1nn(-c2ccccc2)c2sc(C(=O)N3CCOCC3)cc12	-19
CN(C(=O)COC(=O)CNC(=O)c1ccccc1F)C1CCCCC1	0.188
Cl.Nc1ccc2c(c1)OCCOCCOCCOCCOCCO2	-33.5
Cc1cccc(OCC(=O)N2CCN(C(=O)COc3ccc(Cl)cc3)CC2)c1	-72.2
Cc1ccc(F)cc1NC(=O)CCc1c(C)nn(-c2ccc(N3CCCCC3)nn2)c1C	0.00258
CC(=O)c1ccc2c(c1)N(C)c1ccccc1S2	0.783
O=S(=O)(c1ccc(N2CCCCCC2)nc1)N1CCCC1	17.2
Cc1cc(SCC(=O)OC/C(O)=C(\C#N)c2nc3ccccc3[nH]2)c(C)cc1Br	26.9
Cc1ccc(C(=O)/C=C/c2ccccc2[N+](=O)[O-])cc1	6.14
O=C(Nc1ccccn1)C(=O)N1CCCCC1	6.52
COc1ccc2cc(CCl)c(Cl)nc2c1	9.67
COc1ccc(CNC(=O)CCSCc2cccc(Cl)c2)c(OC)c1	-21.7
Nc1c([N+](=O)[O-])cc(-c2cnc[nH]2)cc1[N+](=O)[O-]	22.4
O=C(CSc1nnnn1C1CCCCC1)N1CCc2ccccc21	0.871
O=C(CCCn1c(=S)[nH]c2ccccc2c1=O)NC1CCCCC1	12.7
COc1ccc(CC(=O)NNC(=S)Nc2ccccc2)cc1Br	11
N#Cc1c(N)nc2c3c(sc(=N)c2c1N)NC(=O)CC3c1ccccc1 (stereo not drawn)	14.5
CC(=O)N1c2ccccc2C(C)(c2ccccc2)CC1(C)C (stereo not drawn)	-23.2
Cc1ccccc1C(=O)N1CCC(C(=O)Nc2ccccn2)CC1	11.9
CC(C)c1ccc(NC2CCCN(C(=O)CCN3CCCCC3=O)C2)cc1 (stereo not drawn)	17.1
O=C(CN1CCC(n2nnc3cc(C(F)(F)F)ccc32)CC1)Nc1ccc2c(c1)CCC2	1.83
CCOc1ncccc1C(=O)NCCc1c[nH]c2ccccc12	-7.93
O=C(c1cnc2sccn2c1=O)N(Cc1ccccc1)c1ccccn1	-4.04

Structure (SMILES)	hERG current change (%, negative = inhibition) at 10uM [%]
Cc1ccc([N+](=O)[O-])cc1NC(=O)c1c(-c2ccccc2)noc1C	-9.12
Cc1ccc(C(=O)NCCCc2ccccc2)s1	7.54
COC(=O)Cc1ccc(NC(=S)NCc2ccc(OC)cc2)cc1	-18.2
Cn1ccc(C(=O)OCC(=O)c2ccccc2)n1	-3.73
Cc1ccc(C)c(OCCC(=O)NCCc2ccc(Cl)cc2)c1	21.6
O=C(COC(=O)c1ccc(OC(F)F)cc1)NCCNC(=O)COC(=O)c1ccc(OC(F)F)cc1	-10.1
Cc1c(C(=O)N2CCc3ccccc32)cnn1C	3.63
CN(C)S(=O)(=O)N1CCN(C(=O)c2ccc3c(c2)OCO3)CC1	10
COc1ccc(NC(=O)CC2C(=O)NCCN2C(=O)c2ccc(N(C)C)cc2)cc1 (stereo not drawn)	-0.731
CCCS(=O)(=O)N1CCN(Cc2ccc3c(c2)c2ccccc2n3CC)CC1.O=C(O)C(=O)O	9.97
C=CCOc1c(Cl)cc(CNc2nccs2)cc1OC	-38.7
CCOC(=O)N1CCC(N2C(=O)c3ccc(C(=O)NCCOC)cc3C2=O)CC1	10.3
CCOC(=O)CSc1nnc(CNC(=O)c2ccccc2OC)n1-c1ccc(OC)cc1	-28.8
Cc1cc2oc(=O)cc(C)c2cc1NC(=O)CCl	-4.17
O=C(N/N=C/c1ccc(Br)cc1)c1ccccc1-n1cccc1	-2.55
CCOc1cc(C(=O)Nc2ccc(S(=O)(=O)NC3=NCCCCC3)cc2)cc(Br)c1OC	9.39
Cc1cc(C=O)c(C)n1-c1ccc2c(c1)OCO2	32.2
O=C(Cn1cnc2ccccc2c1=O)Nc1ccccc1N1CCOCC1	15.3
Cc1ccc(Cn2cc(/C=N/NC(=O)Cc3nnc(NC(=O)c4ccc(C)cc4)s3)c3ccccc32)cc1	-4.33
CCOC(=O)N1CCN=C1SCc1ccc(Cl)c(Cl)c1	-4.19
Cc1ccc(S(=O)(=O)N2CCCCC2)cc1NC(=O)CNCc1ccco1.O=C(O)C(=O)O	-32.1
CCN(N)C(=S)Nc1ccc(F)cc1	3.59
Cc1cc(Cl)c(OCCOCCN2CCC(C)CC2)c(Br)c1.O=C(O)C(=O)O	-57.6

Structure (SMILES)	hERG current change (%, negative = inhibition) at 10uM [%]
Cc1cc(=O)oc2cc(OCC(=O)OCC(=O)Nc3c(C)n(C)n(-c4ccccc4)c3=O)ccc12	19.3
COc1ccc(CNS(=O)(=O)NCc2ccccc2)cc1OC	-1
Cc1ccc(C(C)C)cc1OCC(=O)N1CCN(C(=O)c2ccco2)CC1	-41.2
O=C(COc1cccnc1[N+](=O)[O-])Nc1ncc(Cl)cc1Cl	-3.74
Cl.O=C(CCN1CCCCCC1)Nc1cccc(Cl)c1	-42.7
c1ccc2c(c1)nc(NCC1CCCO1)c1nnnn12 (stereo not drawn)	-11.1
CC1(C)CC(=O)c2cc(C(=O)NCc3ccco3)c(=O)n(-c3ccc(Cl)cc3)c2C1	-22.2
CC(=O)Nc1cccc(NC(C)=C(C#N)C#N)c1	20.6
Cc1nn(C)c(C)c1CN(C)C(=O)c1cnn2c1NC(c1ccccc1)CC2C(F)(F)F (stereo not drawn)	-20.9
CC(C)C(c1nnnn1CC1CCCO1)N1CCN(Cc2ccc3c(c2)OCO3)CC1.Cl (stereo not drawn)	-6.66
Cc1ccc(NC(=O)CN(C)C(=O)Cn2ncc(Cl)c(Cl)c2=O)cc1	8.35
CC1CCC(C(C)C)C(OC(=O)C[n+]2cc(-c3ccc(Cl)cc3)n3c2CCCCC3)C1.[Cl-] (stereo not drawn)	-79.4
C=CCC(C#Cc1ccccc1)N(C)C (stereo not drawn)	-12.8
COc1ccc(CCNc2c3ccccc3nc3ccccc23)cc1OC.Cl	-69.7
Cc1ccc(-n2cc(CN3CCN(c4ccccn4)CC3)c(-c3ccc(F)cc3)n2)cc1	11.2
Cc1cccc(NC(=O)c2ccc(COc3ccccc3)o2)n1	-21.5
COc1ccc(C(=O)c2nc3c(n2O)CCCC3)cc1OC	18.1
CCOC(=O)N1CCN(C(=O)Nc2ccc3nc(C)c(C)nc3c2)CC1	3.79
CC(CN1CCCCC1)OC(=O)COc1ccc(Br)cc1 (stereo not drawn)	8.15
COCCC(=O)Nc1ccc2c(c1)CN(C(=O)c1ccc(CSC)o1)CC2	4.5
O=C(O)CC(NCc1ccco1)C(=O)OCC1CCCO1 (stereo not drawn)	10.7

Reference: article PMC4336329 (PLoS ONE, 2015)
